Activity change, negative = inhibition data for 29 molecules are collected here from PubChem BioAssay AID1745853 (National Center for Advancing Translational Sciences (NCATS), 2022).

Assay in all cases: Primary Screen for Target Class Profiling of Small Molecule Inhibitors of Methyltransferases
Test [1] concerns the target Glycine N-methyltransferase (Homo sapiens) (UniProt Q14749). The following applies: purified enzyme, MTase-Glo SAH luminescence; measured here: GNMT inhibition; at 40 µM; stronger effect = lower value. Put shortly:
(§1)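 Each enzyme was reacted with SAM and its substrate, with compounds tested once at 40 uM; SAH formed was read by MTase-Glo luminescence.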

In test [2] the target is Guanidinoacetate N-methyltransferase (Homo sapiens) (UniProt Q14353). To be noted: purified enzyme, MTase-Glo SAH luminescence; measured here: GAMT inhibition; at 40 µM; stronger effect = lower value. The gist of the method: as §1
Test [3] has as its target Histamine N-methyltransferase (Homo sapiens) (UniProt P50135). The following applies: purified enzyme, MTase-Glo SAH luminescence; measured here: HNMT inhibition; at 40 µM; stronger effect = lower value. The gist of the method: as §1
In test [4] the target is Nicotinamide N-methyltransferase (Homo sapiens) (UniProt P40261). To be noted: purified enzyme, MTase-Glo SAH luminescence; measured here: NNMT inhibition; at 40 µM; stronger effect = lower value. Put shortly:
as §1

Test [5] deals with Phenylethanolamine N-methyltransferase (Homo sapiens) (UniProt P11086). The following applies: purified enzyme, MTase-Glo SAH luminescence; measured here: PNMT inhibition; at 40 µM; stronger effect = lower value. Put shortly: as §1

The structures appear in SMILES notation. “And” between values parts separate entries of the source, which are not always exact repeats. Identical values can stand only once. Some of the results follow. These are further read-outs of the screen, such as a control signal, another cell line or another target. No call is given for them.
On the % scale 0 is the no-effect control and ±100 the full control effect.

As for `COc1ccc(C2COc3cc(O)ccc3C2)c(O)c1` (stereo not drawn), the activity change, negative = inhibition in test [1] is -2.5%; in test [2] it was 6.15%; in test [3] it was 7.13%; in test [4], -15.2%; in test [5] it was 6.7%.

Regarding `COc1ccc(OC)c(S(=O)(=O)N2CCC3(CCC3N3CCOCC3)CC2)c1` (stereo not drawn), the activity change, negative = inhibition in test [1] stood at 0.022%; in test [2], 0%; in test [3] it was 4.06%; in test [4], 0.207%; in test [5], 4.51%.

In the case of `Cc1ccc(N2C(=O)CSc3c(c4ccccc4n3C)C2C(=O)NCCCOC(C)C)cc1C` (stereo not drawn), the activity change, negative = inhibition is -8.87% in test [1]; 0% in test [2]; 6.29% in test [3]; 2.84% in test [4]; 4.67% in test [5].

As for `c1ccc(-c2oc3ncnc(NC[C@@H]4CCCO4)c3c2-c2ccccc2)cc1`, the activity change, negative = inhibition in test [1] is -58.4%; in test [2], -42.9%; in test [3] it was -57.3%; in test [4], -58.8%; in test [5], -60%.

Consider `COCC1CN(C(C)=O)CC12CCN(S(=O)(=O)c1ccc(OC)cc1)CC2` (stereo not drawn), for which the activity change, negative = inhibition in test [1] is -1.51%; in test [2] it was -1.73%; in test [3], 0.207%; in test [4], -7.17%; in test [5], -2.67%.

Regarding `CCc1cccc(CC)c1-n1c(C=C(C)C)c(C(=O)N2CCNCC2)cc(-c2nc(-c3ccc(C(F)(F)F)cc3)cs2)c1=O`, the activity change, negative = inhibition is -3.45% in test [1]; -4.96% in test [2]; 2.88% in test [3]; -13.8% in test [4]; 0.8% in test [5].

`CCCn1c(=O)c2ccc(C(=O)NC(C)C)cc2n2c(=O)n(CC(=O)Nc3ccccc3C)nc12`: the activity change, negative = inhibition in test [1] was 3.23%; in test [2] it was 0.986%; in test [3], -1.92%; in test [4], -3.32%; in test [5] it was -5.92%.

As for `CCCN1C(=O)c2c(C(=O)NCc3ccc(OC(C)C)cc3)ncn2CC1(C)C(=O)NCCC(C)C` (stereo not drawn), the activity change, negative = inhibition in test [1] was -1.08%; in test [2], 0%; in test [3], 4.34%; in test [4], 2.16%; in test [5], 6.89%.

Take `CC(=O)NC1CCN(C(=O)Cc2c(C)[nH]c3c(C)ccc(C)c23)C1` (stereo not drawn): the activity change, negative = inhibition is -10.4% in test [1]; -1.17% in test [2]; 0.814% in test [3]; -4.36% in test [4]; -5.64% in test [5].

As to `CC(=O)O[C@@H]1c2c3c(cc(O)c2C(=O)O[C@@H]1C)O[C@@]1(C)[C@@H](O)C[C@H]2C(C)(C)C(=O)C=C[C@]2(C)[C@@H]1C3`, the activity change, negative = inhibition in test [1] was -4.83%; in test [2], -11.7%; in test [3], 0.244%; in test [4] it was -23.6%; in test [5] it was -6.58%.

Take `O=C(NC1CCCCC1)c1cc(-c2ccc(F)cc2)c2nncn2n1`: the activity change, negative = inhibition is -6.78% in test [1]; -13% in test [2]; -5.06% in test [3]; -11% in test [4]; -10.8% in test [5].

On to `O=C(CC1=CCCCC1)NC1CCc2n[nH]c(=O)n2CC1` (stereo not drawn), for which the activity change, negative = inhibition in test [1] was -5.67%; in test [2] it was -8.32%; in test [3] it was -5.07%; in test [4], -7.58%; in test [5] it was -5.59%.

As for `O=C(O)c1cc2cc(Cc3cccnc3)ccc2o1`, the activity change, negative = inhibition was -7.05% in test [1]; 10.9% in test [2]; 3.19% in test [3]; -4.51% in test [4]; 7.99% in test [5].

Consider `COc1ccc2nc(C[C@@H]3C[C@@H](C(C)C)[C@H](CNC(=O)NC4CCCCC4)C=C3C)[nH]c2c1`, for which the activity change, negative = inhibition in test [1] is -5.92%; in test [2], -5.15%; in test [3], -5.56%; in test [4] it was -12.5%; in test [5], 1.1%.

Turning to `CCOC(=O)c1cnc2c(cnn2CC)c1NN=C(C)C`, the activity change, negative = inhibition in test [1] was -24.8%; in test [2], 11.2%; in test [3], 0.813%; in test [4] it was -12.1%; in test [5] it was 2.88%.

Take `Cc1ccc(Cn2nc3n(Cc4ccccc4)c(=O)c4ccc(C(=O)NC5CCCC5)cc4n3c2=O)cc1`: the activity change, negative = inhibition in test [1] was -1.76%; in test [2], -2.97%; in test [3], 4.88%; in test [4] it was -1.62%; in test [5], 1.06%.

For the molecule `CN1CC2(CCN(Cc3ccc(-c4ccc(Cl)cc4)o3)C2)OC1=O` (stereo not drawn), the activity change, negative = inhibition in test [1] is -19.3%; in test [2], -1.69%; in test [3], -1.89%; in test [4], -6.91%; in test [5] it was -11.3%.

`CC(=O)N1CCC(N2C[C@@H]3OCC(=O)N(Cc4ccccn4)[C@@H]3C2)CC1`: the activity change, negative = inhibition in test [1] was -4.52%; in test [2], -8.84%; in test [3], -4.13%; in test [4] it was -14.8%; in test [5], 6.52%.

`COc1cccc(CCc2ccccc2C(=O)N2CC[C@H](CO)[C@@H](O)C2)c1`: the activity change, negative = inhibition in test [1] was -4.49%; in test [2], -5.4%; in test [3], -1.27%; in test [4], -9.95%; in test [5] it was -8.36%.

Regarding `O=C(c1cc(Cc2n[nH]c(=O)c3ccccc23)ccc1F)N1CCCNCC1`, the activity change, negative = inhibition in test [1] is 0.82%; in test [2], 3.48%; in test [3], 0.174%; in test [4] it was -18.7%; in test [5], -4.41%.

`Cc1cc2c(cc3n2CC(C)(C(=O)NC2CCCCCC2)N(CCCOC(C)C)C3=O)o1` (stereo not drawn): the activity change, negative = inhibition in test [1] was 2.62%; in test [2], 0%; in test [3], 7.63%; in test [4], -2.54%; in test [5], 4.26%.

`Cc1ccc(S(=O)(=O)c2nnn3c2nc(NCc2ccc4c(c2)OCO4)c2ccccc23)cc1C`: the activity change, negative = inhibition in test [1] stood at 2.08%; in test [2] it was 0%; in test [3], 7.47%; in test [4], 13.3%; in test [5], 0.73%.

For `CCOC(=O)[C@H](CCc1ccccc1)N[C@@H](C)C(=O)N1C(=O)N(C)C[C@H]1C(=O)O`, the activity change, negative = inhibition is 5.96% in test [1]; 2.45% and 1.24% in test [2]; 11.7% in test [3]; -4.97% and -12.7% in test [4]; 5.55% and 3.24% in test [5].

In the case of `COc1ccc(CCNc2nc3c(S(=O)(=O)c4ccccc4)nnn3c3ccc(Cl)cc23)cc1OC`, the activity change, negative = inhibition in test [1] is -25.6%; in test [2], 0%; in test [3], 8.7%; in test [4] it was 1.01%; in test [5] it was 0.186%.

In the case of `COc1ccc(Cn2c3c(c(=O)n2Cc2ccccc2)CCN(C(=O)CCc2cccnc2)C3)cc1`, the activity change, negative = inhibition is -3.65% in test [1]; 0.932% in test [2]; 1.38% in test [3]; -4.84% in test [4]; 2.25% in test [5].

Turning to `CC1(C(=O)NC2CCCCCC2)Cn2c(c(-n3cccc3)c3ccccc32)C(=O)N1Cc1ccccn1` (stereo not drawn), the activity change, negative = inhibition is 2.02% in test [1]; 0% in test [2]; 7.12% in test [3]; -29.5% in test [4]; 5.38% in test [5].

With `CC(C)c1nc(N(C)S(C)(=O)=O)nc(-c2ccc(F)cc2)c1/C=C/C(O)CC(O)CC(=O)O` (stereo not drawn), the figures for the activity change, negative = inhibition in test [2], in test [4] and in test [5] were -1.21%, -14.1% and 6.32%, respectively.

Take `CCOc1cc(C)c(CN2CCCC(O)(CN(C)C)C2)cc1C(C)C` (stereo not drawn): the activity change, negative = inhibition is -1.93% in test [1]; -0.737% in test [2]; -4.26% in test [3]; -11.5% in test [4]; -2.79% in test [5].

Turning to `Cn1cccc1CN[C@H]1[C@H](O)[C@@H](N2CCCC2)[C@@H]2OC[C@H]1O2`, the activity change, negative = inhibition in test [1] is -4.79%; in test [2], -1.81%; in test [3], 1.27%; in test [4], -2.51%; in test [5] it was -5.2%.
